# Test results as given in the supplement of paper PMC7335073.
# The full ranking holds about 4,100 sequences; the median of “relative CpG methylation activity (normalised to average over all NNNCGNNN flanks)” is about 0.94, and the highest 2% start at about 1.9. This is one part of the list.
# Target: DNMT3B catalytic domain (mouse) (UniProt O88509)
# Test: relative CpG methylation activity (normalised to average over all NNNCGNNN flanks) (relative (1 = mean)); higher = more methylation of the central CpG
# Settings: system: in vitro, murine catalytic domain; CpG state: hemimethylated substrate pool; residues: 558-859
# In short: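 Each experiment was done in two independent repeats, using pooled dsDNA substrates with a central CpG flanked by 10 random nucleotides, methylated for 60 min at 37 °C by the murine DNMT3A or DNMT3B catalytic domain with 0.8 mM S-adenosyl-L-methionine in HEPES pH 7.5 buffer. After bisulfite conversion and PCR, the DNA was read by Illumina sequencing. Methylation was averaged per context, defined by three bases on each side of the CpG. Relative methylation activity is each context's average methylation over the mean of all contexts.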
# Sequence of UniProt O88509 (O88509 558-859): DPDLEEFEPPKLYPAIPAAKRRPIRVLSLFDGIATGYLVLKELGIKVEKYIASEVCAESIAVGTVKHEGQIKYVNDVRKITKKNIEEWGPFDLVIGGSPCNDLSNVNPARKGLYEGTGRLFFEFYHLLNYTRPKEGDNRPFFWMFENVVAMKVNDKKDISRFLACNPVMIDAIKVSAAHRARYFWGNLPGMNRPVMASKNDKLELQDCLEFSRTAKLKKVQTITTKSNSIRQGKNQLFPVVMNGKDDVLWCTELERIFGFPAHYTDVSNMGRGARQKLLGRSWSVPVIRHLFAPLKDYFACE
row,Sequence,relative CpG methylation activity
1,ACCCGTCT,0.608
2,CCGCGCTG,0.794
3,TCCCGACT,1.66
4,TATCGGGT,1.67
5,GAACGCTG,1.08
6,TACCGGCT,1.21
7,TTACGCGG,1.62
8,ACACGTAC,1.39
9,CAACGGTC,1.82
10,TAACGTCG,1.09
11,TTTCGTAT,0.535
12,TCTCGCCA,0.703
13,GGTCGGAA,0.435
14,ATCCGGGA,1.5
15,AGACGAAC,1.48
16,CGGCGCTA,0.358
17,TCCCGGCA,1.62
18,GGGCGAGG,0.551
19,ATACGGCG,2.11
20,TCTCGACT,1.32
21,ATGCGGCC,1.47
22,ACACGGCT,1.89
23,GATCGTTA,0.215
24,GAGCGTGT,0.237
25,CGCCGCTT,0.513

row,Sequence,relative CpG methylation activity
1,GTCCGTCG,0.607
2,TTGCGGAA,0.97
3,TATCGGGA,1.33
4,GCGCGAAG,0.727
5,ACCCGCTT,0.897
6,TTCCGGTG,1.7
7,GTACGCCA,1.65
8,TAGCGGCA,1.41
9,CAACGGTA,1.6
10,ACACGTGC,0.885
11,TGGCGGCG,1.11
12,CTGCGTAC,1.38
13,AATCGATT,1.59
14,CACCGCAC,0.493
15,TATCGTAA,0.305
16,GATCGGTC,1.32
17,CGGCGGGG,0.4
18,GGACGAAC,1.14
19,GCCCGAGA,1.79
20,CCTCGTTG,0.336
21,TGCCGTCA,0.377
22,CAACGGTT,1.37
23,CTGCGCAC,0.831
24,GGGCGATC,1.12
25,AAGCGCTT,0.656

row,Sequence,relative CpG methylation activity
1,TGTCGCGG,0.583
2,ATCCGGTG,1.06
3,CAGCGCCG,0.755
4,TGCCGGGA,0.822
5,TTGCGATC,1.63
6,GAGCGGAT,0.741
7,AATCGCCA,0.719
8,TCCCGAAA,1.18
9,CGACGTTA,0.664
10,CCACGTCT,1.15
11,ACTCGAAA,1.28
12,AGACGAAG,1.12
13,CGACGATA,1.38
14,ATTCGTAT,0.377
15,GCCCGGAG,0.646
16,GCCCGGCT,1.4
17,CGCCGCTG,0.176
18,TGTCGCTC,0.838
19,TTCCGGCC,1.67
20,AGTCGGGT,1.16
21,GCACGCGA,0.765
22,CCGCGGAT,0.712
23,GTGCGGGG,1.06
24,GCGCGAGC,1.55
25,AGTCGCGA,0.346

row,Sequence,relative CpG methylation activity
1,AGTCGTCT,0.556
2,CCGCGTGC,0.56
3,TTACGCTG,1.66
4,CACCGCGG,0.304
5,TTCCGTGG,0.321
6,AGCCGATC,1.21
7,TGCCGAGA,1.52
8,ACTCGTAG,0.333
9,GCTCGGCG,1.53
10,GGCCGGGC,0.979
11,GACCGACG,0.943
12,GCTCGTGA,0.377
13,CTTCGTCG,0.828
14,CCTCGGTC,1.3
15,TGCCGTAG,0.147
16,TGTCGCTA,0.715
17,GAGCGGGA,0.973
18,CTCCGTGA,0.787
19,TTACGCTA,1.71
20,AACCGTCG,0.251
21,CATCGTGC,0.699
22,AACCGTCC,0.606
23,AGACGATG,1.19
24,ATCCGACA,1.43
25,TGCCGTCT,0.354

row,Sequence,relative CpG methylation activity
1,GCTCGGTT,1.28
2,ATACGGGA,1.66
3,ACCCGACA,1.34
4,TGGCGGTG,0.571
5,GTGCGCTC,1.47
6,CCTCGGGG,0.833
7,CGCCGCGG,0.227
8,TAGCGCAA,0.42
9,AATCGAAT,1.3
10,CTACGGAT,1.41
11,CAACGAAT,1.41
12,TAACGCTG,1.35
13,CGACGCGA,0.549
14,CATCGTGT,0.414
15,ACGCGGAC,0.836
16,CCACGCCA,1.27
17,CGGCGCGA,0.254
18,ACCCGATA,1.52
19,TCTCGCAA,0.445
20,TGCCGAGT,1.25
21,AGCCGTCC,0.433
22,AAGCGATT,1.16
23,ATGCGGCT,1.55
24,TTGCGCGT,0.854
25,TATCGTCA,0.499

row,Sequence,relative CpG methylation activity
1,ACGCGGCT,1.34
2,AGCCGACG,0.572
3,GTCCGATT,1.27
4,CCGCGTGA,0.505
5,CTTCGGGA,1.7
6,TACCGCGC,0.388
7,GCGCGGAA,0.631
8,CTGCGGAG,0.811
9,TTGCGCTC,1.18
10,AGGCGGGA,0.382
11,TACCGAAG,0.809
12,TCGCGTGC,0.524
13,ATTCGATA,1.54
14,ATACGGAC,1.59
15,CAGCGGGA,0.811
16,GAGCGCCA,0.656
17,CACCGCAG,0.317
18,CGTCGACC,1.27
19,ATGCGTTT,0.585
20,CCTCGCGT,0.512
21,GCTCGGAC,0.945
22,ATTCGCTT,0.878
23,GCCCGAGG,1.27
24,AATCGGAG,0.619
25,AGGCGGAT,0.466

row,Sequence,relative CpG methylation activity
1,AACCGCCC,0.539
2,TGCCGCTA,0.403
3,TACCGAGG,0.949
4,GACCGTTG,0.161
5,TGACGGAA,1.06
6,CGGCGAGC,1.01
7,TCACGGGT,1.3
8,TACCGCCT,0.791
9,GGACGAAT,1.03
10,CTACGCGT,1.43
11,TAGCGCTA,0.422
12,AAGCGGCT,0.846
13,TGGCGGAT,0.475
14,GTCCGGTG,1.39
15,ACCCGCCG,0.82
16,CCGCGTAC,0.89
17,AATCGAGC,1.85
18,CACCGGAA,0.647
19,CACCGATG,1.19
20,CTTCGGGC,2.18
21,GTGCGGAG,0.588
22,GATCGTGG,0.219
